# Assay results taken from PubChem BioAssay (NCATS).
# Values joined by “and” are separate entries in the source; they are usually repeats but may differ in a detail not shown here. Identical values can stand only once. This list was built around the results that the source calls inconclusive (neither active nor inactive); the mix of calls is not that of the screen. Potencies beside an inconclusive call are fits to weak or partial responses and may not hold up. Active and inactive are the calls of the source. The call rests on the fitted dose curve; in most records, active means well fitted cell-killing curve with a large enough effect; inconclusive means small, poorly fitted or top-dose-only effect; inactive means no such curve, though single readings can be large or run the other way.
# Experiment: qHTS of pediatric cancer cell lines to identify multiple opportunities for drug repurposing: Primary screen for Saos-2 cells (AID 1347097); further: nearly all actives have a fitted effect of over 40% in size
# Details: Saos-2 viability, CellTiter-Glo ATP luminescence, 48 h; series mostly up to 46 µM; activity change, negative = cytotoxic: at the top concentration
# Method in brief: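 Primary screen of approved and investigational compounds on cells in growth media at 37 degrees C, 5% CO2. MIPE set at 11-point and NPC set at 8-point dilutions; viability scored by ATP-based luminescence at 48 hours.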
# On the % scale 0 is the no-effect control and ±100 the full control effect; potency means the concentration at half of the fitted maximal effect; tags describe the fitted curve by direction and shape.
Structure (SMILES),Potency,"activity change, negative = cytotoxic"
COc1ccc(CCN(C)CCCOc2ccc(S(=O)(=O)c3[nH]c4ccccc4c3C(C)C)cc2)cc1OC,"inconclusive: 16.6 µM [cytotoxic, partial curve]",
Cn1cc(-c2ccc3nnc(Sc4ccc5ncccc5c4)n3n2)cn1,"inconclusive: 16.6 µM [cytotoxic, partial curve]",
S=P(N1CC1)(N1CC1)N1CC1,"inconclusive: 36.1 µM [cytotoxic, partial curve] and inconclusive: 14.8 µM [cytotoxic, partial curve]",
CCNC(=O)Nc1ccc(Oc2ncnc(N)c2C=NOC)cc1Cl,"inconclusive: 11.8 µM [cytotoxic, partial curve]",
COc1ccccc1-c1cccc(-c2c(O)c3cc(C#N)c(Cl)cc3[nH]c2=O)c1,"inconclusive: 42.9 µM [cytotoxic, single point]",
COc1ccc(-c2ccc3cc(C(=O)O)ccc3c2)cc1C12CC3CC(CC(C3)C1)C2,"inconclusive: 2.37 µM [cytotoxic, partial curve]",
O=C(Nc1cccc2c(=O)cc(-c3nn[nH]n3)oc12)c1ccc(OCCCCc2ccccc2)cc1,"inconclusive: 37.2 µM [cytotoxic, single point]",
CNC(=O)c1c(-c2ccc(F)cc2)oc2cc(N(CCO)S(C)(=O)=O)c(C3CC3)cc12,active: 16.6 µM,
Cn1cc(C[C@@H](N)C(=O)O)c2ccccc21,,inactive: -2.57% [at 16.1 µM]
CN(C(=O)c1ccc(F)cc1C(F)(F)F)C1CCN(c2nnc(-c3ccnn3C)c3ccccc23)CC1,"inconclusive: 20.9 µM [cytotoxic, partial curve]",
Cc1cc(C(C)(C)C)cc(C)c1CC1=NCCN1,"inconclusive: 10.6 µM [cytotoxic, partial curve, poor fit]",
CCOc1cc2ncc(C#N)c(Nc3ccc(F)c(Cl)c3)c2cc1NC(=O)C=CCN(C)C,active: 2.96 µM,
Oc1ccc([C@@H]2Oc3ccc(O)cc3[C@@H]3CCC[C@@H]32)cc1,active: 6.62 µM,
C[C@@H]1CC=CC=CC=CC=C[C@@H](O[C@@H]2O[C@H](C)[C@@H](O)[C@H](N)[C@H]2O)C[C@@H]2O[C@](O)(C[C@@H](O)C[C@@H]3O[C@@H]3C=CC(=O)O1)C[C@H](O)[C@@H]2C(=O)O,,inactive: 8.21%
COc1cc2nccc(Oc3ccc(NC(=O)Nc4cc(C)on4)c(Cl)c3)c2cc1OC,active: 14.8 µM,
CC(C)[C@H](O)C(=O)N[C@@H](C)C(=O)N[C@@H]1C(=O)N(C)CCc2ccccc21,"inconclusive: 2.35 µM [cytotoxic, partial curve, poor fit]",
Cc1c(-c2ccc(O)cc2)n(Cc2ccc(OCCN3CCCCCC3)cc2)c2ccc(O)cc12,"inconclusive: 14.8 µM [cytotoxic, partial curve, poor fit] and inconclusive: 33.5 µM [cytotoxic, single point]",
CN(C)CCC=C1c2ccccc2C=Cc2ccccc21,"inconclusive: 21.1 µM [cytotoxic, partial curve]",
Nc1cccc(S(=O)(=O)N2CCCN(S(=O)(=O)c3ccc4c(c3)OCCO4)CC2)c1,"inconclusive: 14.8 µM [cytotoxic, partial curve]",
CC1=C(C(=O)Nc2cc3cn[nH]c3cc2F)C(c2ccc(C(F)(F)F)cc2)CC(=O)N1 (configuration not stated),"inconclusive: 3.32 µM [cytotoxic, full curve]",
Nc1ncnc2c1c(-c1cccc(OCc3ccccc3)c1)cn2C1CC(CN2CCC2)C1 (configuration not stated),active: 3.32 µM,
CN(C)CCCC1(c2ccc(F)cc2)OCc2cc(C#N)ccc21 (configuration not stated),"inconclusive: 9.35 µM [cytotoxic, partial curve, poor fit]",
